Here are results for three substances from PMC7228994.

Protein sequences, listed by entry. Tags and fused reporters are not part of them.
UniProt P27694: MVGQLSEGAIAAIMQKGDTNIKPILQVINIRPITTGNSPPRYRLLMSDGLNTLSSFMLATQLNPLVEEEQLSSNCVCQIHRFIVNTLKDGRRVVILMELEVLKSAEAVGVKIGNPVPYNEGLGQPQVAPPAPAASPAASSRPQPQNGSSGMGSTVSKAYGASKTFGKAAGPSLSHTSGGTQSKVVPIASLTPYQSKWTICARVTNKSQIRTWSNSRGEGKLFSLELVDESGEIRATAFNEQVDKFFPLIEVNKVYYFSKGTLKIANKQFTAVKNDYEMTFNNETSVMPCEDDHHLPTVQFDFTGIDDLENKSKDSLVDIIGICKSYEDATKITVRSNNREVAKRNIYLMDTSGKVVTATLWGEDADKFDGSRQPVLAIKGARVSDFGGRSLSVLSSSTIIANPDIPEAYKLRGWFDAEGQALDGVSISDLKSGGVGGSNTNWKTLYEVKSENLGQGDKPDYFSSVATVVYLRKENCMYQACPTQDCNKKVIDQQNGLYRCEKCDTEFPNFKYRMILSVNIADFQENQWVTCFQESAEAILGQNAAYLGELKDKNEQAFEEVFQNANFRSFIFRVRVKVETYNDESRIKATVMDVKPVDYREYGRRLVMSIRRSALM
UniProt Q9BXW9: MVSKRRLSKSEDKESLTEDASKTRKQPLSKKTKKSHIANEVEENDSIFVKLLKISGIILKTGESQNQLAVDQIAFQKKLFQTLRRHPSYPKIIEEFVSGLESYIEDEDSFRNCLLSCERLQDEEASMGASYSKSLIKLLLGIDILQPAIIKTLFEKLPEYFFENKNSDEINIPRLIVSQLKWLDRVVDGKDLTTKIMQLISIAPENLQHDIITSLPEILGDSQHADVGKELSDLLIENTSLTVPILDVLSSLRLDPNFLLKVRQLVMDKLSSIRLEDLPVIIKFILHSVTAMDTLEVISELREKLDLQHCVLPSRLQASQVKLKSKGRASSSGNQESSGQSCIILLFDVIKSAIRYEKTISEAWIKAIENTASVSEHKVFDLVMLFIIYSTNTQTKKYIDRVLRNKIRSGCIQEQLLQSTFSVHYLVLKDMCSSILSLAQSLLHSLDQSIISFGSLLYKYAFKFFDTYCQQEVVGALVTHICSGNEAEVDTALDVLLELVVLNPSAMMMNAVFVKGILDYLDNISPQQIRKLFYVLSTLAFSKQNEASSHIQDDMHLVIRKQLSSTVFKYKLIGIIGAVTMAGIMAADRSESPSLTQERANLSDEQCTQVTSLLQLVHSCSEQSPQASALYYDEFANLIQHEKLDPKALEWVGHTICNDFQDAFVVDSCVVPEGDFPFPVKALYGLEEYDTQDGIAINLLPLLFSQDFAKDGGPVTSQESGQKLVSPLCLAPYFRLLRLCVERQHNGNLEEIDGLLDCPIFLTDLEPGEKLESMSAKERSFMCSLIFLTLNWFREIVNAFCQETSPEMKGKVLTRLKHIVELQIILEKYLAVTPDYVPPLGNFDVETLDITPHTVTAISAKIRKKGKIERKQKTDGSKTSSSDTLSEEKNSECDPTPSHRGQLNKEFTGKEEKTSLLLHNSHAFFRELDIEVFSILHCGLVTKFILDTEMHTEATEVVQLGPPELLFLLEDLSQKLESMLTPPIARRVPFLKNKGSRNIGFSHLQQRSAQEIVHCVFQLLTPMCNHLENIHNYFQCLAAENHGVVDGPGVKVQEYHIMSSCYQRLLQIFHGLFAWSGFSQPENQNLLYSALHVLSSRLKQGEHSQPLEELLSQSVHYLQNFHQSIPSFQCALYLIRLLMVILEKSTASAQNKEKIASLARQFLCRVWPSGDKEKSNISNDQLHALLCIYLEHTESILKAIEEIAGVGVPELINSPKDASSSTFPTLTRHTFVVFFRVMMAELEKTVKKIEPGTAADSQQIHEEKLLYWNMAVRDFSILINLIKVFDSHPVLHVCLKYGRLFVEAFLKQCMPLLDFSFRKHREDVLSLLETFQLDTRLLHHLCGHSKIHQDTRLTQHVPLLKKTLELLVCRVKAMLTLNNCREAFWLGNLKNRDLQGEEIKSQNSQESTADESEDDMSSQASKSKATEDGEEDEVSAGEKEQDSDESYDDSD
UniProt Q8IY92: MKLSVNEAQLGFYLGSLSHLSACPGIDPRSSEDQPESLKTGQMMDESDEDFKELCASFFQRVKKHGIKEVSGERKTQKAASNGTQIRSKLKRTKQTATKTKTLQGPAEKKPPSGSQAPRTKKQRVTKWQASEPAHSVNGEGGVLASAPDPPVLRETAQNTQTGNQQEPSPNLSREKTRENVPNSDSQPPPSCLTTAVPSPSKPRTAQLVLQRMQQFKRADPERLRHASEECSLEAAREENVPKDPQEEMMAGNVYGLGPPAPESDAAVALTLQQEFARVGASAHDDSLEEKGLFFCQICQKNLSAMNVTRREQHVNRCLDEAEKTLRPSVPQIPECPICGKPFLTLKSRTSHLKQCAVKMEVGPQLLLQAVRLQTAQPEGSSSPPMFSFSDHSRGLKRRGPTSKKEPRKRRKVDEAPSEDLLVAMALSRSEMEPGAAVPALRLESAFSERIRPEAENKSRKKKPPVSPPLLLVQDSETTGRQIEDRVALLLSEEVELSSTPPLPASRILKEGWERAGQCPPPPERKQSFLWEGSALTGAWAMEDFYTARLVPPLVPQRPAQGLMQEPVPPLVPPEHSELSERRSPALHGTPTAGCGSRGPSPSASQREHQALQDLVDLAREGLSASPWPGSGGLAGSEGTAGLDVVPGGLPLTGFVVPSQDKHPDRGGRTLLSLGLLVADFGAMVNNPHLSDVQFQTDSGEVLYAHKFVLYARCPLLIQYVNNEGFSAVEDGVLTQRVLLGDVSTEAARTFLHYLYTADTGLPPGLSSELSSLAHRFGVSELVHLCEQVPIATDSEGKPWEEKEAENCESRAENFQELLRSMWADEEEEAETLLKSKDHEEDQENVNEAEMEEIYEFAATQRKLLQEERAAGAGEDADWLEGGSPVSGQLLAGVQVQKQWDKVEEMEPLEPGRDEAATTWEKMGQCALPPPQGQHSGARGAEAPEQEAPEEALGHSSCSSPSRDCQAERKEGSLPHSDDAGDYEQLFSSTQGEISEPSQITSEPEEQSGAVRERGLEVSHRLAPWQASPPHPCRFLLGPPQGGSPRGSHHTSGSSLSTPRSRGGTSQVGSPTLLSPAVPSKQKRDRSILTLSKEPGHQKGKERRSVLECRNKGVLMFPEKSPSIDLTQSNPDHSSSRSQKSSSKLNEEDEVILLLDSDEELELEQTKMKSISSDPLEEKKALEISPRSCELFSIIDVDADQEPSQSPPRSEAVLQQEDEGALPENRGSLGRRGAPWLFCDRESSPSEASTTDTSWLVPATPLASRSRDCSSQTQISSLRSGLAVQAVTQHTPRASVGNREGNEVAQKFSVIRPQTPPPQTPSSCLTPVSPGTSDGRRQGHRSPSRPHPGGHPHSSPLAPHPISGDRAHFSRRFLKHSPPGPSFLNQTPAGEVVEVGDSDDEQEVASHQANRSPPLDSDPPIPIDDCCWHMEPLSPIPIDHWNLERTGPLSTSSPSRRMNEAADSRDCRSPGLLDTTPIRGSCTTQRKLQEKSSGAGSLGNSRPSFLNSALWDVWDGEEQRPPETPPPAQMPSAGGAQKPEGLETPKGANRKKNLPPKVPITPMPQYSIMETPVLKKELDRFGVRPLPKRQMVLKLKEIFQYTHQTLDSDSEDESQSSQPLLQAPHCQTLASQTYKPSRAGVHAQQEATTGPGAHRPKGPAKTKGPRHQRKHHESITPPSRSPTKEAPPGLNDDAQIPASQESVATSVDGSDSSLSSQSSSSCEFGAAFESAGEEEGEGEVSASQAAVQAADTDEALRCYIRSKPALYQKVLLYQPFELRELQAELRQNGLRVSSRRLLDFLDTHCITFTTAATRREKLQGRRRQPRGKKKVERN

Changes are numbered by the printed parent chain. These are yes or no findings as the source states them, for the method shown. In cells and extracts the contact can be indirect. Some binding calls cover weakened binding; strength is not graded here. Sequences can lack the tags named with a protein.

What all share (assay): co-IP; GFP-Trap_A beads on benzonase-treated lysates (30 mM Tris pH 7.5, 150 mM NaCl, 2 mM MgCl2, 0.5% Triton X-100) of U2OS XPF KO cells expressing GFP-tagged XPF forms; cells mock treated or 10 µg/ml MMC for 1 h; immunoblot
(In western blotting, separated proteins are transferred to a membrane and probed.)

Assay [1] addresses T1, GFP-tagged XPF carrying the amino acid substitution S786F (human) (UniProt Q92889).
T1 sequence: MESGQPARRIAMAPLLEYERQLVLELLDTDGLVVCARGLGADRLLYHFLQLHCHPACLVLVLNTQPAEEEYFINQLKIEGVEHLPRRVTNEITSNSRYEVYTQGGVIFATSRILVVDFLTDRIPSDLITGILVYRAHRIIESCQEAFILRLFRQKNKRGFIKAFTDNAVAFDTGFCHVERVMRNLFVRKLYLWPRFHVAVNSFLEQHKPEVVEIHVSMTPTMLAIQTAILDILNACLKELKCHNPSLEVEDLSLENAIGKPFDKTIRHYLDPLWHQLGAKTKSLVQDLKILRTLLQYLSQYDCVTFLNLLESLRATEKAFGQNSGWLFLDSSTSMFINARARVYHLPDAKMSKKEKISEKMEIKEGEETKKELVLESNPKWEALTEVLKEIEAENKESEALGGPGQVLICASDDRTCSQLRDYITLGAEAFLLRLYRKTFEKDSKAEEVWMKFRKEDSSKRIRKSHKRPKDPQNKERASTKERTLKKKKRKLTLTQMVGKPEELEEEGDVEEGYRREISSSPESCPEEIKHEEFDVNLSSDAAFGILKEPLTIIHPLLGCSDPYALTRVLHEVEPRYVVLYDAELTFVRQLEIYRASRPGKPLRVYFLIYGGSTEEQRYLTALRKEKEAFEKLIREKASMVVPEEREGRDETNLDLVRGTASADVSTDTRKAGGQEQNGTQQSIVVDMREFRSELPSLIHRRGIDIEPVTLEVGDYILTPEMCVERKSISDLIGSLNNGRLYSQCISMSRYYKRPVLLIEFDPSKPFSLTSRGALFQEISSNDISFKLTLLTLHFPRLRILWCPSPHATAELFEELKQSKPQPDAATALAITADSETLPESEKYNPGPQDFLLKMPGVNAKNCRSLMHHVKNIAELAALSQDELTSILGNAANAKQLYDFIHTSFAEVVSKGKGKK

For assay [2], the target named is T2, GFP-tagged XPF carrying the amino acid substitution R689S (human) (UniProt Q92889).
T2 sequence: T1 sequence with R689S, F786S

Assay [3] deals with T3, GFP-tagged wild-type XPF (human) (UniProt Q92889).
T3 sequence: T1 sequence with F786S

“RPA70, the largest subunit of the heterotrimeric RPA complex (from UniProt P27694 1-616)”: the binding entry in assay [1] and in assay [2] was “no binding” each time.
In the case of FANCD2 (from UniProt Q9BXW9 1-1451), the binding result in assay [1] and in assay [2] was “no binding” each time.
On to SLX4 (from UniProt Q8IY92 1-1834), for which the binding entry in assay [1], in assay [3] and in assay [2] was “binds” in each case.
